# In all, about 420,000 compounds went through this assay and about 64,000 (15%) were called active. Inconclusive results, whose numbers are uncertain, are shown with a selection of clear calls. Calls come from the whole dose curve; as a rule, active = well fitted inhibition curve with a large enough effect; inconclusive = small, poorly fitted or top-dose-only effect; inactive = flat fitted curve, though single readings scatter. No potency is given beside an inconclusive call; the fits are too rough.
# Test: qHTS for Inhibitors of human tyrosyl-DNA phosphodiesterase 1 (TDP1): qHTS in cells in absence of CPT; note: nearly all actives have a fitted effect of over 55% in size
# Settings: DT40 Tdp1-/- hTDP1 cells, no CPT, ATP luminescence, 48 h; activity change, negative = growth inhibition: at 46.2 µM (top of the series) unless noted
# Outline: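 A cellular qHTS used chicken DT40 cells lacking endogenous Tdp1 but carrying stably transfected human TDP1. Compounds were applied without camptothecin, and cell growth kinetics were judged by ATP-dependent luminescence after ≥48 hr.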
# % is set by controls: 0 for no effect and ±100 for the full control effect; potency is the fitted concentration of half-maximal effect; tags give direction and shape of the fitted curve.
Compound,Potency,"activity change, negative = growth inhibition"
COc1ccc(-c2nc(CS(=O)CC(=O)NCc3ccc(Cl)cc3)c(C)o2)cc1 (centres undefined),"inconclusive [inhibitor, single point]",
Clc1ccc(Cl)c(-c2ccc(/C=N/c3ncn[nH]3)o2)c1,inactive,
O=C(NCc1ccco1)c1ccc(CS(=O)(=O)Cc2ccc(Cl)cc2)o1,"inconclusive [inhibitor, single point]",
N#CC(C#N)C(c1ccsc1)c1c(-c2ccccc2)[nH][nH]c1=O (centres undefined),"inconclusive [inhibitor, partial curve]",
O=C(Nc1ccccc1)c1ccccc1OCc1ccccc1,inactive,
CCN1CCN(C(=O)C2=CC(c3ccc(OC)cc3)=NS(=O)(=O)N2C)CC1,"inconclusive [inhibitor, single point]",
O=C(Nc1ccncc1)c1cn(-c2ccccc2)nc1-c1cccs1,"inconclusive [inhibitor, partial curve]",
NC(=O)c1ccccc1NC(=O)CSc1cn[nH]n1,inactive,
CCOc1ccccc1NC(=O)NCCc1c[nH]c2ccccc12,"inconclusive [inhibitor, partial curve, poor fit]",
CCN(CC(=O)Nc1ccccc1OC)CC(=O)Nc1sccc1C#N,"inconclusive [inhibitor, single point]",
CCOC(=O)N1CCN(S(=O)(=O)c2c(C)cc(C)cc2C)CC1,"inconclusive [inhibitor, single point]",
CCCCCCCCNS(=O)(=O)CCNCc1ccc(OC)cc1,"inconclusive [inhibitor, single point]",
COc1ccc(/C=N\NC(=O)c2c(C)nc3ccc(Br)cn23)cc1,active: 0.731 µM,
CC1OC(C2CCCCC2)Cc2[nH]c(=S)[nH]c(=O)c21 (centres undefined),"inconclusive [inhibitor, partial curve]",
Cc1cc(C)c(S(=O)(=O)Nc2ccc(O)c(Sc3ncn[nH]3)c2)c(C)c1,"inconclusive [inhibitor, single point]",
CCOc1ccc(CN(C)C(=O)CNC(=O)c2ccc(Br)o2)cc1OC,inactive,
CCCCn1nnc(NC(=O)c2ccc(-c3ccccc3[N+](=O)[O-])o2)n1,"inconclusive [inhibitor, single point]",
CCN1CCN(CCNC(=O)c2ccc3c(c2)N(Cc2ccc(F)cc2)C(=O)/C(=C/c2ccccc2)S3)CC1,active: 8.2 µM,
O=C(c1ccc(Cl)cc1)c1cnc(Nc2ccccc2Cl)s1,"inconclusive [inhibitor, partial curve]",
CN(CC(=O)NCCc1ccc(S(N)(=O)=O)cc1)CC(=O)Nc1ccc(Cl)c(C(F)(F)F)c1,active: 13 µM,
Cc1noc(NS(=O)(=O)c2ccc(NC(=O)CSc3nnc(-c4ccccc4)n3C3CCCCC3)cc2)c1C,inactive,
O=C([C@H](Cc1ccccc1)NS(=O)(=O)c1ccc(Cl)cc1)N1CC[C@@]2(O)CCCC[C@H]2C1,"inconclusive [inhibitor, single point]",
O=C(O)/C(=C\c1cn(-c2ccccc2)nc1-c1cccnc1)NC(=O)c1ccccc1,inactive,
COc1ccc(S(=O)(=O)N(C)C)cc1NC(=O)c1ccc(OCC(=O)N2CCOCC2)c(OC)c1,inactive,
Cc1ccc(NC(=O)c2cnn3c2NC(c2ccccc2)=CC3c2ccccc2)cc1 (centres undefined),"inconclusive [inhibitor, single point]",

Compound,Potency,"activity change, negative = growth inhibition"
CCC(Sc1nnc(C)n2c1cc1occc12)C(=O)Nc1ccccc1OC (centres undefined),active: 20.6 µM,
O=C1CC(SCc2nc3ccccc3[nH]2)C(=O)N1c1ccc(Cl)cc1 (centres undefined),"inconclusive [inhibitor, single point]",
COc1ccccc1N1CCN(C2CCCN(C(=O)c3ccoc3)C2)CC1 (centres undefined),,inconclusive: -32.6% [inhibitor]
O=C(CNS(=O)(=O)c1ccc(Br)s1)NCCc1ccc(Cl)cc1,"inconclusive [inhibitor, partial curve, poor fit]",
COC(=O)c1cccc2nc3c(C(C)O)cccc3nc12 (centres undefined),"inconclusive [inhibitor, single point]",
CCC1Cc2[nH]c(=S)[nH]c(=O)c2C(c2ccc(F)cc2)O1 (centres undefined),inactive,
O=S(=O)(c1cc(F)ccc1F)N1CCN(C2CCCCC2)CC1,"inconclusive [inhibitor, single point]",
Cc1cccc(COc2ncnc3nc[nH]c23)c1,active: 13 µM,
CN(C)S(=O)(=O)c1ccc(C(=O)NCC[N+]2(C)CCCCCC2)o1,inactive,
Cc1cc(C)n2c(=S)[nH]nc2n1,"inconclusive [inhibitor, partial curve, poor fit]",
CCNc1nc(NC(N)=S)nc(NC(C)(C)C)n1,inactive,
CC(=O)c1sc(N2C(=O)c3oc4ccccc4c(=O)c3C2c2ccc(C)cc2)nc1C (centres undefined),inactive,
Cc1ccccc1-n1c(O)c(C=NC2CCS(=O)(=O)C2)c2ccccc2c1=O (centres undefined),"inconclusive [inhibitor, single point]",
Cc1ccc(N(CC(=O)NCC(O)c2ccccc2)S(=O)(=O)c2ccc(C)cc2)cc1 (centres undefined),inactive,
COc1ccc(C(=O)NC2CC2)cc1OC1CCN(Cc2cnn(C)c2)CC1,inactive,
O=C(N/N=C\c1cccc([N+](=O)[O-])c1O)C1COc2ccccc2O1 (centres undefined),active: 5.17 µM,
COc1ccccc1OC(C)C(=O)Nc1cccc(-c2nc3ccccc3o2)c1 (centres undefined),active: 20.6 µM,
OC(CNCCC(c1ccccc1)c1ccccc1)COc1ccccc1 (centres undefined),active: 13 µM,
CCCC(=O)Nc1c(-c2ccccc2)c(=O)c(C)nn1-c1ccccc1,inactive,
Cc1ccc(C(C)C)c(OCC(O)CN2CCc3ccccc3C2)c1 (centres undefined),"inconclusive [inhibitor, single point]",
CC(C)(C)c1nnc(NC(=O)c2cccs2)s1,inactive,
Cc1ccc(-c2nn(-c3ccccc3)cc2NC(=O)CCl)cc1,active: 2.59 µM,
CCOC(=O)c1cnc(SCc2cccc3ccccc23)nc1N,"inconclusive [inhibitor, partial curve]",
CCc1ccc(N2CC(C(=O)Nc3ccc(C)c(S(=O)(=O)N4CCOCC4)c3)CC2=O)cc1 (centres undefined),"inconclusive [inhibitor, single point]",
Cc1ccc(Cl)cc1N1CCN(S(=O)(=O)c2ccc3c(c2)CCN3C(=O)C2CCC2)CC1,inactive,

Compound,Potency,"activity change, negative = growth inhibition"
CCc1ccc(NS(=O)(=O)c2ccc3[nH]cc(C(=O)NCCCOC(C)C)c(=O)c3c2)cc1,"inconclusive [inhibitor, partial curve]",
Cc1ccnc(NS(=O)(=O)c2ccc(NC(=O)Cc3ccc(Br)cc3)cc2)n1,inactive,
COc1ccccc1CNC(=O)CSC1=Nc2ccccc2N=C(c2ccc(F)cc2)C1,"inconclusive [inhibitor, single point]",
COc1ccc(C(=O)Nc2cccc(-c3cnc4ccccc4n3)c2)cc1,"inconclusive [inhibitor, partial curve]",
CCCSc1nc2c([nH]c3ccccc32)c(=O)n1C,"inconclusive [inhibitor, partial curve, poor fit]",
COc1ccc(Nc2cc(C(=O)NCCCN3CCOCC3)c3ccccc3n2)c(OC)c1,inactive,
CN1C2CCC1/C(=C\c1ccccc1F)C(=O)/C2=C/c1ccccc1F,"inconclusive [inhibitor, single point]",
CC1(Cc2ccc(Cl)c(Cl)c2)C(=O)Nc2ccc(S(=O)(=O)NC3CCCCC3)cc21 (centres undefined),"inconclusive [inhibitor, single point]",
COCCNC(=S)N(CCc1c(C)[nH]c2ccc(Cl)cc12)Cc1cccs1,"inconclusive [inhibitor, single point]",
O=C(NCc1cccnc1)c1nn(-c2ccc(F)cc2)nc1CO,,inconclusive: -19.8% [inhibitor]
COc1ccc(CNC(=O)CSc2n[nH]c(N)n2)cc1OC,inactive,
N=c1c2c(-c3ccccc3)c(-c3ccccc3)n(Cc3ccco3)c2ncn1CCO,active: 6.51 µM,
COc1ccccc1CN1CCN(Cc2nc(-c3ccc(C)cc3)oc2C)CC1,"inconclusive [inhibitor, single point]",
Cc1ccc(C)c(N2CCN(CCCNC(=O)Cn3cccc3C(=O)c3ccccc3)CC2)c1,active: 5.17 µM,
O=[N+]([O-])c1cccc(/C=N/Nc2cc(Cl)nc(-c3ccccc3)n2)c1,active: 20.6 µM,
COc1cc(C2C(C#N)=C(N)Oc3cc(N)ccc32)cc(OC)c1OC (centres undefined),active: 0.651 µM,
Cc1ccc(-c2csc3nc(C(C)C)oc(=O)c23)c(C)c1,,inconclusive: -36% [inhibitor]
CC(C)c1nc2ccc(C(=O)Nc3ccccc3F)cc2o1,active: 5.8 µM,
Cc1coc2c1C(=O)C(=O)c1c-2ccc2c(C)cccc12,active: 4.61 µM,
O=C(NCCN1CCC(n2c(=O)[nH]c3ccccc32)CC1)c1cccc(F)c1,inactive,
CCCn1c(=N)c(C(=O)NCc2ccc3c(c2)OCO3)cc2c(=O)n3cccc(C)c3nc21,"inconclusive [inhibitor, partial curve]",
Cc1cc2nc(-c3ccccc3)c(Cc3cccc(F)c3)n2c(C)c1Br,active: 16.4 µM,
COc1cccc(N2CCN(S(=O)(=O)c3ccc4ccccc4c3)CC2)c1,"inconclusive [inhibitor, partial curve]",
CC(=O)Nc1ccc(S(=O)(=O)Nc2cc3c(cc2C(C)=O)OCO3)cc1,"inconclusive [inhibitor, partial curve]",
